# Test results reported in the supplement of paper PMC3334620.
# The full ranking holds about 33,000 sequences; the median of “E-score (-0.5 to 0.5)” is about -0.041, and the highest 2% start at about 0.37. The list shows a part of the results.
# Target: T1, Ecm22 (UniProt Q05958)
# T1 sequence: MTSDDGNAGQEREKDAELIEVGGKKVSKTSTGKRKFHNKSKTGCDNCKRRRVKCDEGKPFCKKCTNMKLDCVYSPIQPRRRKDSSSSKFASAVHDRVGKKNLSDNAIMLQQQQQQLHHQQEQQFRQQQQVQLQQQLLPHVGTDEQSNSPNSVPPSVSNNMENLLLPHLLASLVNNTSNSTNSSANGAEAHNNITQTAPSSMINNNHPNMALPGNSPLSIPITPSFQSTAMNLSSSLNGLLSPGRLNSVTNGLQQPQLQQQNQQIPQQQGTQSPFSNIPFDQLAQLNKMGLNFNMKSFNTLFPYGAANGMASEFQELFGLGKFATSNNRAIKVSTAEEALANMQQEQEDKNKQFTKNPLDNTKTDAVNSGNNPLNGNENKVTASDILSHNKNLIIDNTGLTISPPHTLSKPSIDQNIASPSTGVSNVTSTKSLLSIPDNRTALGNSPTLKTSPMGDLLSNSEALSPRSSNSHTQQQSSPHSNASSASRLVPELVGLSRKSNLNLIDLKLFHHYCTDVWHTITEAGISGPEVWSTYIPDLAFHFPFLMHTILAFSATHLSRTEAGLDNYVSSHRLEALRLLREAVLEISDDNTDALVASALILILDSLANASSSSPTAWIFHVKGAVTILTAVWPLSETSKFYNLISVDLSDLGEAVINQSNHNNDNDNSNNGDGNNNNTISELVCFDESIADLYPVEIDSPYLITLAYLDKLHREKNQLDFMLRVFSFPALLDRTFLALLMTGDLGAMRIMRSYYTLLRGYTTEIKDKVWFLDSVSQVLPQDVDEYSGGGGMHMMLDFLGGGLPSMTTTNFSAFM
# Assay: PBM E-score (8-mer binding enrichment) (E-score (-0.5 to 0.5)); higher = stronger / more preferred TF binding; most listed sequences are background and not binding sites
# Conditions: protein concentration: 200 nM; construct: GST-full length
# Experimental: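 Universal 'all 10-mer' protein binding microarrays (Agilent AMADID 015681) probed with GST-tagged S. cerevisiae TFs (full-length or DBD) made by in vitro transcription/translation (PURExpress), about 100-200 nM. Bound TF was detected with fluorescent anti-GST. Each ungapped 8-mer (which stands for itself and its reverse complement) is scored by the PBM enrichment score (E-score), a modified Wilcoxon-Mann-Whitney statistic from -0.5 to +0.5, computed with the Universal PBM Analysis Suite. Scale: above 0.35 generally sequence-specific binding.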
row,Sequence,PBM E-score
1,ATCACAAG,-0.0512
2,ACTGGAGA,-0.194
3,ATCAGCAA,-0.172
4,AAAGACCC,-0.157
5,ATGCTTGA,-0.162
6,AATGCCAA,-0.224
7,ACCTGCCC,-0.276
8,AAACAAGC,0.0423
9,AACGGTCC,0.124
10,GCTATACC,-0.073
11,AGCACCTG,-0.322
12,CGCTCACC,0.112
13,GGCCCGAC,-0.125
14,AACTCTTA,0.0548
15,ATGTATTA,0.0531
16,CGCACCGC,0.111
17,ATCGAGGA,0.115
18,GACATCGA,-0.035
19,GTTACGGA,0.233
20,ACACTCAA,0.184
21,TACTCGCA,0.249
22,AAGCTACC,-0.165
23,AAGGTGCG,0.147
24,GCTGTACC,-0.175
25,CCGGGACA,-0.057

row,Sequence,PBM E-score
1,AGGATTAG,-0.0677
2,ATTTGTTC,0.207
3,ACTCTCTG,-0.0894
4,CGCACGCC,0.0673
5,GGTCGTAA,0.417
6,GAGTGTCC,-0.0357
7,AGGCATAC,-0.0177
8,ACATTCAA,-0.116
9,AATAACCT,-0.148
10,AATGGCCC,-0.311
11,CGGAATGC,-0.154
12,ACGTCACG,-0.12
13,CCATCATA,-0.352
14,GAGGTGAC,-0.047
15,AGCTTACC,-0.139
16,AAAGCAGT,-0.132
17,GAGACAAC,0.129
18,AGGTTAAT,-0.0751
19,ACTCAGAA,-0.0905
20,CAGACCTG,-0.0891
21,CTTATCTC,0.0813
22,AACGAGGG,0.439
23,CCCATGAC,-0.0348
24,AAGGTATT,-0.07
25,ACCGGATA,0.00383

row,Sequence,PBM E-score
1,AAAACGTT,0.0503
2,CAATAGTC,-0.185
3,GTGGACTA,-0.152
4,GGCAGGCA,-0.31
5,CCTCAAGC,-0.229
6,AAGCGGTG,-0.0233
7,CAAATAAA,0.0329
8,GTGCGGGA,0.0471
9,ACGCGCCT,0.189
10,AGTGCGCG,-0.0783
11,GTGATCAA,-0.113
12,CTAATGAG,-0.0357
13,ATGTTACC,0.0884
14,ATAGCACG,-0.0226
15,CCGCACGA,0.106
16,CTGTAGGA,-0.0162
17,AAGCACTT,-0.125
18,AGAGCCAC,-0.096
19,AAGAGGCG,0.0152
20,GCCTAGCC,-0.318
21,CGTGACCA,-0.21
22,AGCTCATA,-0.187
23,ACACAACT,0.0288
24,TTCGTAAA,0.456
25,AGGGAGCA,-0.183

row,Sequence,PBM E-score
1,AGCATTGA,-0.0648
2,GCGAGCCC,0.179
3,AATAGTCG,0.177
4,CCTAGATA,-0.0259
5,CGGTAACA,0.0257
6,GCCCGTGA,-0.115
7,CACATCGA,0.083
8,AAGAACAT,-0.0641
9,CAAAGTTG,-0.214
10,ATATTCGC,0.17
11,AAGGGGAT,-0.214
12,GTCCGAGA,0.253
13,AACTCACT,-0.267
14,TCCCCGCA,0.0495
15,CGGCTAGC,-0.0355
16,GGCCAAAC,0.107
17,AGTCTTGG,-0.126
18,CATTGGCA,-0.215
19,TCATGCAA,-0.0223
20,CTGAATAC,0.0937
21,AAATCTCC,-0.239
22,CAGAAAAG,0.0159
23,AAGTCGAT,0.0277
24,CAGATAGG,-0.0702
25,AGCGATAC,0.197

row,Sequence,PBM E-score
1,GAAATCGC,0.0812
2,ACGCGCAG,-0.109
3,AACTGTTC,-0.177
4,CCCCCTAG,-0.406
5,AATCCAGC,-0.174
6,CAATTCGG,0.0789
7,CTGGAGAA,-0.17
8,ACTCATCT,-0.16
9,GATACCCC,-0.104
10,AGCCCCAA,-0.236
11,CCTATGTC,-0.0471
12,CCACACTA,-0.0747
13,GCACGTCA,-0.236
14,CCTACAAC,-0.0853
15,ATCACGTA,0.146
16,GCCACACC,-0.142
17,ATTTGTAG,-0.154
18,ATCTCAGG,-0.205
19,AGAGCGAT,0.0348
20,AGCCAACA,-0.14
21,ACCAAAGC,0.023
22,ACGCGTGC,-0.012
23,AGGGTGGG,-0.138
24,CATGTTAG,-0.188
25,ATGATTTG,-0.152

row,Sequence,PBM E-score
1,AGCCGGCA,-0.122
2,AAGCGCCT,-0.178
3,GAGGGCCC,-0.157
4,CACTTTGA,-0.243
5,GCAATGTA,0.0905
6,ACCCCTGC,-0.385
7,CGAATTTA,0.195
8,TAGGCATA,-0.199
9,GCATTGGC,-0.25
10,CGGGAGGC,-0.194
11,ATTGGATC,-0.153
12,ACTAATCC,0.0416
13,TGGTACAA,-0.167
14,TATTATGA,0.121
15,GCCTGCCC,-0.174
16,AACCGCGG,0.145
17,CTGAGTTA,-0.234
18,ACAGAAAT,0.0671
19,TCGAAGAA,-0.0464
20,CCCAGTAA,-0.206
21,ACCTGTAA,0.17
22,CTTTATGC,-0.0617
23,GCGTTAAC,0.154
24,TTGTAAAA,0.0509
25,ACATCGAG,0.0646

row,Sequence,PBM E-score
1,CCCTCCAA,-0.206
2,AAGTGCAT,-0.185
3,ACTATCTG,-0.146
4,AGGCTCAT,-0.178
5,ACCAGAAA,-0.0057
6,CGAGATAG,0.0664
7,CTTAAAAG,-0.331
8,TAATCCGA,0.112
9,AAGTTAGA,-0.21
10,ACAAGGAG,0.0186
11,ATTCGCAG,-0.00814
12,ACAAGATG,-0.158
13,AAATTGGC,-0.0614
14,AACGGCTG,0.114
15,CCATACAC,0.00013
16,AGCGCGAG,0.0786
17,AAGCCACG,0.0177
18,ACTGGATA,0.00817
19,CTTGCTAC,0.0718
20,ACACTTAA,0.035
21,AACCCCGT,0.0296
22,ATGTAGGG,-0.259
